Out of some 310,000 compounds screened, about 2,200 (0.71%) showed an effect of 50% or more. Effects have a minus sign here. The list shows a part of the results.
target: human ether-à-go-go-related gene (hERG) potassium channel (human, UniProt Q12809); assay: primary screen, population patch clamp on CHO cells stably expressing hERG
Sequence (Q12809 whole entry, looked up): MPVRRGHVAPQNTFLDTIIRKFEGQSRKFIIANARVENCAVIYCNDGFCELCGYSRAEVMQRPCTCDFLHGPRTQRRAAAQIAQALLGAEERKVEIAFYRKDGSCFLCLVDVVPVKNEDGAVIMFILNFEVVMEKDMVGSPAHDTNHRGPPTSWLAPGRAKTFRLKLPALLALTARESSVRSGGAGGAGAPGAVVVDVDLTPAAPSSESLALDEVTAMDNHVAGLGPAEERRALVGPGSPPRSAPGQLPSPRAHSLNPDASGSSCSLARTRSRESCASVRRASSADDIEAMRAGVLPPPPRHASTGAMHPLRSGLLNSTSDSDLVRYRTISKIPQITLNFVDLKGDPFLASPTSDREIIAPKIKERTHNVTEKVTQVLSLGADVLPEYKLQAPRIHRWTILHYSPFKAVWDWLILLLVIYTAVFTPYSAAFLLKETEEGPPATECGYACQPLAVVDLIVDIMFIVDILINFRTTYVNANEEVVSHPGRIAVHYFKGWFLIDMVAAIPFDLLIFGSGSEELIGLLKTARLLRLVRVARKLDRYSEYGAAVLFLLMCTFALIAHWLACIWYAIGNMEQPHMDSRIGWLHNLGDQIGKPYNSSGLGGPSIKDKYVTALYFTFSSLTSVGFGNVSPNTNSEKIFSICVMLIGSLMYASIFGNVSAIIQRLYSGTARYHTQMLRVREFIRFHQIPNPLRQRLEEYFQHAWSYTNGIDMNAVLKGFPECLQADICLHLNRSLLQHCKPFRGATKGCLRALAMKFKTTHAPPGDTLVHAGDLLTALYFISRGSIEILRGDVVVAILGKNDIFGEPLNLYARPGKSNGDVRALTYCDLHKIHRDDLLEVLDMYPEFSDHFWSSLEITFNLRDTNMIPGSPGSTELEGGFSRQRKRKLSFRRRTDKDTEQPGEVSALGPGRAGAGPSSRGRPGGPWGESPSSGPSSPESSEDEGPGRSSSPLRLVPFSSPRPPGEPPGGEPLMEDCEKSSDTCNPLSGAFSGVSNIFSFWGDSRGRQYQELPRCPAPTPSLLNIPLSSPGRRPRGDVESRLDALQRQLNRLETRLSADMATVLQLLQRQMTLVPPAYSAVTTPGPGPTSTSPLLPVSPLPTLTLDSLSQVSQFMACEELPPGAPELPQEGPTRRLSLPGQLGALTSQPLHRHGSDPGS

| Structure (SMILES) | hERG current change (%, negative = inhibition) at 1uM [%] |
| --- | --- |
| Cc1ccc(N(C(=O)c2ccn[nH]2)C(C(=O)NC2CCCC2)c2cccs2)cc1 (stereo not drawn) | 15.4 |
| COc1cc(/C=N/Nc2ccc(C(=O)O)cc2)ccc1O | 13.7 |
| O=S(=O)(NCCOc1ccc(F)cc1)c1ccc2c(c1)OCCO2 | -2.47 |
| CCCc1ccc(C(C)NC(=S)NC2CCCCC2)cc1 (stereo not drawn) | 14.3 |
| CCC(CO)Oc1cc(NCc2ccc(OC)cc2)c2ncn(C(C)C)c2c1 (stereo not drawn) | 9.04 |
| O=C(Nn1c(C2CCCCC2)nc2ccccc2c1=O)c1cc(Cl)ccc1[N+](=O)[O-] | 6.53 |
| COc1cc(NC(=O)c2cc(C)on2)cc(OC)c1OC | 0.949 |
| CN(CC(=O)Nc1c(Cl)cccc1Cl)C(=O)C1CSC2(C)CCC(=O)N12 (stereo not drawn) | 2.85 |
| O=C(NC1CCCCC1)NC1CCN(S(=O)(=O)c2ccc3c(c2)OCCO3)CC1 | 9.08 |
| CCCCOC(=O)c1ccc(OC(=O)N2CCOCC2)cc1 | 7.32 |
| N/C(=N\OC(=O)CCCOc1ccccc1)c1cccc(Br)c1 | 23 |
| CCOC(=O)c1c(S(=O)(=O)NCC(=O)Nc2ccccc2OC)c(C)n(C)c1C | 9.9 |
| Cc1c(CNC(=O)c2c([N+](=O)[O-])cnn2C)cnn1C | 6.57 |
| CCN(CC)C(=O)CSc1nnc(-c2cccnc2)n1Cc1ccccc1 | 2.95 |
| CC(=O)Oc1cc2c(cc1Cl)C(c1cccs1)CC1(CC(C)(C)NC(=S)N1)O2 (stereo not drawn) | 8.54 |
| CCN(CC)P(=O)(Nc1ccc(SC(F)F)cc1)c1ccc(N(C)C)cc1NC(=O)c1ccco1 (stereo not drawn) | 9.69 |
| O=C(Cn1cnc2ccccc21)c1ccccc1 | 15.6 |
| COc1cc(C=O)cc(Br)c1OCC(N)=O | 11.2 |
| O=C(Nc1cccc(C(=O)Nc2ccccc2C(=O)O)c1)c1cccc(Cl)c1 | 12.2 |
| CCOC(=O)c1c(C)[nH]c(C)c1S(=O)(=O)N(C)CC(=O)N(C)Cc1ccccc1 | 22.5 |
| CN1CC(C(=O)c2cccc(C(F)(F)F)c2)C(c2ccc(Cl)cc2)C1 (stereo not drawn) | 25.4 |
| Cc1ccc(CNc2nc3ccccc3n3nnnc23)cc1 | 14.9 |
| O=C(NCc1ccco1)C(=O)NCC1OCCN1C(=O)c1ccc(Cl)cc1 (stereo not drawn) | 6.08 |
| CC(Oc1ccc2c(c1)c1ccnc3c4ccccc4c(=O)n2c13)C(=O)NCCN1CCOCC1 (stereo not drawn) | 10.5 |
| Cc1cc(NNC(=O)c2cccc(C(F)(F)F)c2)nc2c1c(C)nn2C | 3.71 |
| CCn1nnnc1SCC(=O)N1c2ccccc2Sc2ccccc21 | 13.9 |
| COC(=O)c1sccc1Oc1ccc(F)cc1[N+](=O)[O-] | 10 |

| Structure (SMILES) | hERG current change (%, negative = inhibition) at 1uM [%] |
| --- | --- |
| Cc1nc2ccccc2n1CC(=O)N1CC(=O)Nc2ccccc21 | 18.6 |
| N#CCn1cnc2sc(-c3ccccc3)cc2c1=O | 10.3 |
| CCc1ccccc1NC1c2ccccc2C(=O)N1Cc1ccco1 (stereo not drawn) | -1.49 |
| COc1ccccc1S(=O)(=O)Cc1ccc(C(=O)NC2CC2)o1 | 13.1 |
| COC(=O)Cn1c(CCC(=O)O)ccc1-c1ccccc1 | 10.4 |
| CCOc1ccc(C(C)(C)C)cc1S(=O)(=O)n1nc(C)cc1C | -3.33 |
| Cn1cccc1/C=C(\C#N)C(N)=S | 9.2 |
| N#CC1=C(N)Oc2n[nH]c(-c3cccnc3)c2C1c1ccc([N+](=O)[O-])o1 (stereo not drawn) | 3.89 |
| CCCNC(=O)COC(=O)c1ccc(N2CCCC2)c([N+](=O)[O-])c1 | -3.49 |
| Cc1[nH]c2ccccc2c1C(=O)CN1CCN(c2ccc(Cl)cc2)CC1 | 9.25 |
| Cc1cc(NC(=O)C(C)SCC(=O)Nc2nnc(CC(C)C)s2)no1 (stereo not drawn) | 9.37 |
| COc1ccc(Br)cc1/C=N/NC(=O)c1cc(OC)c(OC)c(OC)c1 | 14.2 |
| CC(=O)C1C(=O)c2c(cccc2[N+](=O)[O-])C1=Nc1ccccc1C (stereo not drawn) | 11 |
| COc1ccccc1C(CNC(=O)c1cccc(NS(=O)(=O)c2ccc(Br)cc2)c1)N(C)C (stereo not drawn) | -6.25 |
| O=C1c2ccccc2C(=O)N1CC(O)Cn1nnc2ccccc21 (stereo not drawn) | 10.4 |
| CC(C#N)Sc1nnc(-c2ccccc2F)n1C1CC1 (stereo not drawn) | 17 |
| Cc1ccccc1CC(=O)N1CC(C)OC(C)C1 (stereo not drawn) | 12.8 |
| C[N+]1=C2CCCCCN2C(O)(c2ccccc2)C1.[I-] (stereo not drawn) | 11.8 |
| Cn1cc(NC(=O)OCc2ccc(Cl)cc2)c(C(F)(F)F)n1 | 12.9 |
| COC(=O)c1cc(NC(=O)CN2CCC(C(N)=O)(N3CCCCC3)CC2)cc(C(=O)OC)c1 | 5.65 |
| CC(C)CCNC(=O)C(C)N(Cc1ccc(F)cc1)C(=O)c1ccc(CN2CCOCC2)o1 (stereo not drawn) | 11.9 |
| C[C@H]1CC[C@@H]2[C@@H](C)[C@H]3[C@H](C[C@H]4[C@@H]5CC=C6C[C@@H](O[C@@H]7O[C@H](CO)[C@H](O)[C@H](O[C@@H]8O[C@H](CO)[C@@H](O)[C@H](O)[C@H]8O)[C@H]7O[C@@H]7O[C@@H](C)[C@H](O)[C@@H](O)[C@H]7O)CC[C@]6(C)[C@H]5CC[C@]34C)N2C1 | 13.4 |
| CCc1ccccc1OCC(=O)N(CC)CC(=O)NCc1ccc(F)cc1 | 5.82 |
| COc1ccc(-c2noc(CSc3nc4sc(C)c(C)c4c(=O)n3-c3ccccc3)n2)cc1 | 5.01 |
| S=C(NCc1ccccc1)N1CCN(c2ccccc2)CC1 | 12.4 |
| CC(C)(C)c1ccc(C(=O)N2CCC(C(=O)NC3CC3)CC2)cc1 | 8.83 |
| NC1=NC2(CCCC2)n2c(nc3ccccc32)N1 | 8.12 |

Reference: publication PMC4336329 (PLoS ONE, 2015)
